45 compounds from article PMC4336329 (PLoS ONE, 2015) can be followed below.

The structures appear in SMILES notation. Among all 310,000 compounds or so, about 14,000 (4.5%) showed an effect of 50% or more. The effect is printed as a negative number. The list shows a part of the results.
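Further: peak tail current of the secondary pulse compared with the same well before compound.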

Chain of human ether-à-go-go-related gene (hERG) potassium channel (Q12809 whole entry, looked up): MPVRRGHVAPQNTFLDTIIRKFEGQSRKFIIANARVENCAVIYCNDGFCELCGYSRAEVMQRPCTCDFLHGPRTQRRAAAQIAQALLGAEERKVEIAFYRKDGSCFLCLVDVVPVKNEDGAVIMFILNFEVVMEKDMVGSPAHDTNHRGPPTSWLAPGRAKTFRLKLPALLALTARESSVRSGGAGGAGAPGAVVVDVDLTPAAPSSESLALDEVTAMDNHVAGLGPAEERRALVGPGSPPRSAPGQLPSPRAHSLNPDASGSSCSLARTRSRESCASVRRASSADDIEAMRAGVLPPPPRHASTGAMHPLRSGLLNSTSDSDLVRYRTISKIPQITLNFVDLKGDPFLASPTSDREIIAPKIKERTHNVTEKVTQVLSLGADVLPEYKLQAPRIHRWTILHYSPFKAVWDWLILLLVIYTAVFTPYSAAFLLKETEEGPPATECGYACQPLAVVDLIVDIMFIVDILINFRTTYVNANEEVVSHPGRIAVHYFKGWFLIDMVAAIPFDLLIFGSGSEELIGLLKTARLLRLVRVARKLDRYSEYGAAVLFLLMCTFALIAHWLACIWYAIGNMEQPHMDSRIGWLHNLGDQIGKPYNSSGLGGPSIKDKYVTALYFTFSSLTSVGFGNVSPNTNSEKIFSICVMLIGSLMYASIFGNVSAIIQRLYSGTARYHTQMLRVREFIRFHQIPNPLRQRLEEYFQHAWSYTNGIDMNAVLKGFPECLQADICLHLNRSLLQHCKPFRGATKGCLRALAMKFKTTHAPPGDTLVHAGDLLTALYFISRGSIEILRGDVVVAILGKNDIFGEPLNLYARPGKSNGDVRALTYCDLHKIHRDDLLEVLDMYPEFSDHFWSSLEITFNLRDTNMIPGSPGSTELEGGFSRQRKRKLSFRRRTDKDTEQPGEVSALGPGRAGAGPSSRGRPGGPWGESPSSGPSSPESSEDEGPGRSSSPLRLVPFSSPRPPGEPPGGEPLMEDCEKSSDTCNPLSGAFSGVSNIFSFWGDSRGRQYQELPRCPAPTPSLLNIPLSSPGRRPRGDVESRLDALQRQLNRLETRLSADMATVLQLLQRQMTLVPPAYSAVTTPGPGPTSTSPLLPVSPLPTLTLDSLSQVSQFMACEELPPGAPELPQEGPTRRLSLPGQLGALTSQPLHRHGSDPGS

The assay has as its target human ether-à-go-go-related gene (hERG) potassium channel (human, UniProt Q12809). Nature of the assay: primary screen, population patch clamp on CHO cells stably expressing hERG.
In the case of `COc1cc2cccc(OC)c(=O)c2c(O)c1OC`, the “hERG current change (%, negative = inhibition) at 10uM” value was -1.84%.

As for `Oc1ccccc1C1Nc2cccc3cccc(c23)N1`, the “hERG current change (%, negative = inhibition) at 10uM” value is listed as -0.719%.

Consider `CCCCNC(=O)c1cc(C)no1`, for which the “hERG current change (%, negative = inhibition) at 10uM” value is recorded as 11.1%.

With `Cc1ccc(-n2nc3c(=O)n(CCCC(=O)NCCc4ccccc4)nc(C)c3c2C)cc1`, the “hERG current change (%, negative = inhibition) at 10uM” value was found to be 7.96%.

`CCS(=O)(=O)N1N=C(c2ccccc2)CC1c1ccc2nccnc2c1` (stereo not drawn): the “hERG current change (%, negative = inhibition) at 10uM” value is -16.3%.

Turning to `C=CCNc1nc2c(c(=O)n(C)c(=O)n2C)n1CCCCCC`, the “hERG current change (%, negative = inhibition) at 10uM” value is listed as -23%.

On to `COc1cccc(-n2c(-c3ccc4[nH]c(C)c(C)c4c3)n[nH]c2=S)c1`, for which the “hERG current change (%, negative = inhibition) at 10uM” value worked out at 6.83%.

`CC(=O)c1cccc(OCc2cc(C(=O)NCCC3=CCCCC3)no2)c1`: the “hERG current change (%, negative = inhibition) at 10uM” value was determined as 7.85%.

`CN(C)Cc1nc2ccccc2c(=O)n1CC#N`: the “hERG current change (%, negative = inhibition) at 10uM” value was 11.5%.

As for `COc1cccc(/C=N/NC(=O)CCC(=O)Nc2ccc(Br)cc2)c1`, the “hERG current change (%, negative = inhibition) at 10uM” value is 20.4%.

With `CC(=O)NCCCc1c[nH]c2ccc(Cl)cc12`, the “hERG current change (%, negative = inhibition) at 10uM” value is recorded as 4.59%.

Consider `CC1(C)OC(=O)N(CC(=O)Nc2ccccc2)C1(C)O` (stereo not drawn), for which the “hERG current change (%, negative = inhibition) at 10uM” value is 36.4%.

Consider `Cc1sc2nc(SCc3nc(-c4cccs4)no3)n(-c3ccccc3)c(=O)c2c1C`, for which the “hERG current change (%, negative = inhibition) at 10uM” value was 14.8%.

Take `Cc1cccn2c(=O)nc(SCC(=O)NCc3ccco3)nc12`: the “hERG current change (%, negative = inhibition) at 10uM” value was 1.37%.

Regarding `CN(CCc1ccccn1)C(=O)c1ccc(OC(F)(F)F)cc1.Cl`, the “hERG current change (%, negative = inhibition) at 10uM” value worked out at 5.41%.

On to `Cc1ccc(N(CCC(=O)O)S(=O)(=O)c2cccc(C(F)(F)F)c2)cc1`, for which the “hERG current change (%, negative = inhibition) at 10uM” value was 8.11%.

Take `Cc1nnc(N2C(=O)C(O)=C(C(=O)c3ccco3)C2c2ccc(C(C)(C)C)cc2)s1` (stereo not drawn): the “hERG current change (%, negative = inhibition) at 10uM” value is listed as 6.25%.

For `Cc1ccc(SCC(=O)Nc2ccccc2N2CCOCC2)cc1`, the “hERG current change (%, negative = inhibition) at 10uM” value is listed as -16.7%.

With `CCOC(=O)c1c(C)n(C)c2cc(Br)c(OC)cc12`, the “hERG current change (%, negative = inhibition) at 10uM” value turned out to be 15.6%.

As to `CCc1ccc(NC(=O)Nc2ccncc2)cc1`, the “hERG current change (%, negative = inhibition) at 10uM” value was -20.9%.

Regarding `CCOc1ccc(NS(=O)(=O)c2cc(OC)ccc2OC)cc1`, the “hERG current change (%, negative = inhibition) at 10uM” value is 7.99%.

Take `COc1ccc(OCC(=O)NC(=S)N2CCCc3ccccc32)cc1`: the “hERG current change (%, negative = inhibition) at 10uM” value was determined as 2.37%.

Take `Cc1nn(C)cc1C(=O)Nc1ccc2c(c1)OCCO2`: the “hERG current change (%, negative = inhibition) at 10uM” value stood at 9.1%.

With `O=[N+]([O-])c1ccc(CN2CCOCCOCCOCC2)cc1`, the “hERG current change (%, negative = inhibition) at 10uM” value is on record as -59.1%.

`Cc1noc(C)c1C(=O)NNc1ccc(C(C)C)cc1`: the “hERG current change (%, negative = inhibition) at 10uM” value is given as -1.85%.

With `CC1C(C#N)=C(SCC(N)=O)NC2=C1C(=O)CC(C)(C)C2` (stereo not drawn), the “hERG current change (%, negative = inhibition) at 10uM” value came to 17.7%.

Consider `O=c1c(Cl)c(NCc2ccc(F)cc2)cnn1C12CC3CC(CC(C3)C1)C2`, for which the “hERG current change (%, negative = inhibition) at 10uM” value was -30.5%.

With `CCOC(=O)c1cnc2c(Cl)cccc2c1NCCN1CCOCC1`, the “hERG current change (%, negative = inhibition) at 10uM” value is recorded as -15.3%.

For `Cc1nn(Cc2cccc(Oc3ccccc3)c2)c(C)c1NC(=O)NC12CC3CC(CC(C3)C1)C2`, the “hERG current change (%, negative = inhibition) at 10uM” value is -5.79%.

Take `Cc1ccc(NS(=O)(=O)c2c(C)[nH]c(C)c2C(=O)N2CCCCC2)cc1Cl`: the “hERG current change (%, negative = inhibition) at 10uM” value amounted to 16.3%.

For `CN(C)S(=O)(=O)c1ccc(Cl)c(NC(=O)COC(=O)CC(NC(N)=O)c2ccc(Cl)cc2)c1` (stereo not drawn), the “hERG current change (%, negative = inhibition) at 10uM” value came to 3.05%.

As for `Cc1cccc(NS(=O)(=O)c2ccc(NC(=O)CN(c3cc([N+](=O)[O-])ccc3C)S(C)(=O)=O)cc2)c1`, the “hERG current change (%, negative = inhibition) at 10uM” value came to 2.36%.

Consider `O=C(c1ccc(Br)s1)N1CCN(C/C=C/c2ccccc2)CC1`, for which the “hERG current change (%, negative = inhibition) at 10uM” value was -40.6%.

For the compound `N#C/C(=N\Nc1ccccc1)C(=N)N1CCCCCC1`, the “hERG current change (%, negative = inhibition) at 10uM” value is -41.1%.

As for `CCc1nc2scc(-c3ccccc3)c2c(=O)n1N`, the “hERG current change (%, negative = inhibition) at 10uM” value amounted to 1.05%.

For the compound `O=C(Nc1cccn(Cc2ccc(F)cc2)c1=O)NC1CCCCC1`, the “hERG current change (%, negative = inhibition) at 10uM” value is -36.2%.

On to `CSc1ccc(C(=O)C2CCCN(C(=O)c3ccsc3)C2)cc1` (stereo not drawn), for which the “hERG current change (%, negative = inhibition) at 10uM” value is reported as -30.5%.

`CCCCn1nc(C(=O)Nc2cc(C(F)(F)F)ccc2N2CCOCC2)ccc1=O`: the “hERG current change (%, negative = inhibition) at 10uM” value is listed as -83.7%.

Regarding `Cc1cc(F)ccc1NCc1ccc([N+](=O)[O-])cc1`, the “hERG current change (%, negative = inhibition) at 10uM” value is reported as -0.213%.

On to `O=C(C1CCCO1)N1CCN(c2ncccn2)CC1` (stereo not drawn), for which the “hERG current change (%, negative = inhibition) at 10uM” value is 13.7%.

Regarding `CN1C(=O)C(CC(=O)Nc2ccc3c(c2)Cc2ccccc2-3)N(C)C1=O` (stereo not drawn), the “hERG current change (%, negative = inhibition) at 10uM” value is -11.5%.

For the compound `CCN1C(=O)[C@H]2[C@@H](c3ccc(-c4ccc(F)cc4)c(OC)c3)N[C@@](C)(C(=O)OC)[C@H]2C1=O.O=C(O)C(F)(F)F`, the “hERG current change (%, negative = inhibition) at 10uM” value is -4.06%.

Regarding `COc1ccc(-c2cc(C(=O)Nc3ccc(OC)c(OC)c3)no2)cc1`, the “hERG current change (%, negative = inhibition) at 10uM” value was determined as 22.3%.

As to `COc1ccc(N2CCN(C(=O)CN3C(=O)COc4ccccc43)CC2)cc1`, the “hERG current change (%, negative = inhibition) at 10uM” value is -1.51%.

`Cc1[nH]c(C)c(S(=O)(=O)N2CCCCC2)c1C(=O)N1CCCCC1`: the “hERG current change (%, negative = inhibition) at 10uM” value is recorded as 4.27%.
